From publication PMC9911399, “Two distinct binding modes provide the RNA-binding protein RbFox with extraordinary sequence specificity”
Residue numbers refer to the chain shown, from its start. This is one part of the list.

T1: RBFOX1 RRM RbFoxmut (Fox-RRM*) (Homo sapiens, UniProt Q9NWB1 109-208, R118D;E147R;N151S;E152T)
T1 sequence: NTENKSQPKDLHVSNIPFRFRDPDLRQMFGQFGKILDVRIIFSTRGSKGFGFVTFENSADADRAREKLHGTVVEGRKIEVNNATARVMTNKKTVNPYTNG

B1: CCUAAUC (DNA:RNA)
RNA: GGGAGACCGGAAUUCAGAUUGUCCCCUAAUCUUAAAUCCCGUCGUAGCCACCA
DNA 1: CAATCTGAATTCCGGTCTCCC
DNA 2: TGGTGGCTACGACGGGATT
B2: UUCGAGG (DNA:RNA)
RNA: B1 RNA with C25U, C26U, U27C, A28G, U30G, C31G
DNA 1: CAATCTGAATTCCGGTCTCCC
DNA 2: TGGTGGCTACGACGGGATT
B3: GAAUGUG (DNA:RNA)
RNA: B1 RNA with C25G, C26A, U27A, A28U, A29G, C31G
DNA 1: CAATCTGAATTCCGGTCTCCC
DNA 2: TGGTGGCTACGACGGGATT
B4: AAUGCUG (DNA:RNA)
RNA: B1 RNA with C25A, C26A, A28G, A29C, C31G
DNA 1: CAATCTGAATTCCGGTCTCCC
DNA 2: TGGTGGCTACGACGGGATT
B5: UCAGCCG (DNA:RNA)
RNA: B1 RNA with C25U, U27A, A28G, A29C, U30C, C31G
DNA 1: CAATCTGAATTCCGGTCTCCC
DNA 2: TGGTGGCTACGACGGGATT
B6: GGGAUCC (DNA:RNA)
RNA: B1 RNA with C25G, C26G, U27G, A29U, U30C
DNA 1: CAATCTGAATTCCGGTCTCCC
DNA 2: TGGTGGCTACGACGGGATT
B7: AGUUCGA (DNA:RNA)
RNA: B1 RNA with C25A, C26G, A28U, A29C, U30G, C31A
DNA 1: CAATCTGAATTCCGGTCTCCC
DNA 2: TGGTGGCTACGACGGGATT
B8: GUGCAGC (DNA:RNA)
RNA: B1 RNA with C25G, C26U, U27G, A28C, U30G
DNA 1: CAATCTGAATTCCGGTCTCCC
DNA 2: TGGTGGCTACGACGGGATT
B9: AGAUUAU (DNA:RNA)
RNA: GGGAGACCGGAAUUCAGAUUGUCCAGAUUAUUUAAAUCCCGUCGUAGCCACCA
DNA 1: CAATCTGAATTCCGGTCTCCC
DNA 2: TGGTGGCTACGACGGGATT
B10: CGCACAG (DNA:RNA)
RNA: B9 RNA with A25C, A27C, U28A, U29C, U31G
DNA 1: CAATCTGAATTCCGGTCTCCC
DNA 2: TGGTGGCTACGACGGGATT
B11: UUGAAAU (DNA:RNA)
RNA: B9 RNA with A25U, G26U, A27G, U28A, U29A
DNA 1: CAATCTGAATTCCGGTCTCCC
DNA 2: TGGTGGCTACGACGGGATT
B12: GUUCCCG (DNA:RNA)
RNA: B1 RNA with C25G, C26U, A28C, A29C, U30C, C31G
DNA 1: CAATCTGAATTCCGGTCTCCC
DNA 2: TGGTGGCTACGACGGGATT
B13: UGCGUCG (DNA:RNA)
RNA: B9 RNA with A25U, A27C, U28G, A30C, U31G
DNA 1: CAATCTGAATTCCGGTCTCCC
DNA 2: TGGTGGCTACGACGGGATT
B14: ACGAGCU (DNA:RNA)
RNA: B9 RNA with G26C, A27G, U28A, U29G, A30C
DNA 1: CAATCTGAATTCCGGTCTCCC
DNA 2: TGGTGGCTACGACGGGATT
B15: GAUAAAC (DNA:RNA)
RNA: B1 RNA with C25G, C26A, U30A
DNA 1: CAATCTGAATTCCGGTCTCCC
DNA 2: TGGTGGCTACGACGGGATT
B16: GUAAAAA (DNA:RNA)
RNA: B9 RNA with A25G, G26U, U28A, U29A, U31A
DNA 1: CAATCTGAATTCCGGTCTCCC
DNA 2: TGGTGGCTACGACGGGATT
B17: AUCCAAA (DNA:RNA)
RNA: B9 RNA with G26U, A27C, U28C, U29A, U31A
DNA 1: CAATCTGAATTCCGGTCTCCC
DNA 2: TGGTGGCTACGACGGGATT
B18: AGCUAGU (DNA:RNA)
RNA: B9 RNA with A27C, U29A, A30G
DNA 1: CAATCTGAATTCCGGTCTCCC
DNA 2: TGGTGGCTACGACGGGATT
B19: CUUUGUG (DNA:RNA)
RNA: B1 RNA with C26U, A28U, A29G, C31G
DNA 1: CAATCTGAATTCCGGTCTCCC
DNA 2: TGGTGGCTACGACGGGATT
B20: ACCGGGA (DNA:RNA)
RNA: B9 RNA with G26C, A27C, U28G, U29G, A30G, U31A
DNA 1: CAATCTGAATTCCGGTCTCCC
DNA 2: TGGTGGCTACGACGGGATT
B21: GCCUACG (DNA:RNA)
RNA: B1 RNA with C25G, U27C, A28U, U30C, C31G
DNA 1: CAATCTGAATTCCGGTCTCCC
DNA 2: TGGTGGCTACGACGGGATT
B22: UUUUGAC (DNA:RNA)
RNA: B9 RNA with A25U, G26U, A27U, U29G, U31C
DNA 1: CAATCTGAATTCCGGTCTCCC
DNA 2: TGGTGGCTACGACGGGATT
B23: CGCUGUU (DNA:RNA)
RNA: B9 RNA with A25C, A27C, U29G, A30U
DNA 1: CAATCTGAATTCCGGTCTCCC
DNA 2: TGGTGGCTACGACGGGATT
B24: GCAAAGC (DNA:RNA)
RNA: B1 RNA with C25G, U27A, U30G
DNA 1: CAATCTGAATTCCGGTCTCCC
DNA 2: TGGTGGCTACGACGGGATT
B25: AGGGAAU (DNA:RNA)
RNA: B9 RNA with A27G, U28G, U29A
DNA 1: CAATCTGAATTCCGGTCTCCC
DNA 2: TGGTGGCTACGACGGGATT
B26: GUCGCCG (DNA:RNA)
RNA: GGGAGACCGGAAUUCAGAUUGUCCGUCGCCGUUAAAUCCCGUCGUAGCCACCA
DNA 1: CAATCTGAATTCCGGTCTCCC
DNA 2: TGGTGGCTACGACGGGATT
B27: CCUGGCA (DNA:RNA)
RNA: B1 RNA with A28G, A29G, U30C, C31A
DNA 1: CAATCTGAATTCCGGTCTCCC
DNA 2: TGGTGGCTACGACGGGATT
B28: CCUCUUC (DNA:RNA)
RNA: B1 RNA with A28C, A29U
DNA 1: CAATCTGAATTCCGGTCTCCC
DNA 2: TGGTGGCTACGACGGGATT
B29: CUCCGCC (DNA:RNA)
RNA: B26 RNA with G25C, G28C, C29G, G31C
DNA 1: CAATCTGAATTCCGGTCTCCC
DNA 2: TGGTGGCTACGACGGGATT
B30: CCCCCAA (DNA:RNA)
RNA: B1 RNA with U27C, A28C, A29C, U30A, C31A
DNA 1: CAATCTGAATTCCGGTCTCCC
DNA 2: TGGTGGCTACGACGGGATT
B31: CAGCGUG (DNA:RNA)
RNA: B1 RNA with C26A, U27G, A28C, A29G, C31G
DNA 1: CAATCTGAATTCCGGTCTCCC
DNA 2: TGGTGGCTACGACGGGATT

Molecular target: T1, RBFOX1 RRM RbFoxmut (Fox-RRM*)
Assay: EMSA; HiTS-Eq, 1 nM pool, 10 min; buffer printed only for the single-RNA assays: 10 mM Tris pH 7.5, 150 mM NaCl, 3.4 mM EDTA, 0.001% NP-40, 30 C
Conditions: tags: His6 N-terminal (pET28a); label: 5' 32P
Method in brief: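 Purified RbFox RRM (wild type or mutant) was equilibrated for 10 min in 50 µL with 1 nM of a 5′-radiolabelled pool of RNA with 7 randomized nucleotides, its flanks annealed to DNA oligonucleotides, across increasing protein concentrations. Free RNA was separated by 8% native PAGE, excised, reverse-transcribed, PCR-barcoded and sequenced on an Illumina HiSeq 2500. Relative association constants came from read-count changes of each variant against the control reaction, normalised to the cognate motif.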

Row | Binder | binding signal
1 | B1 | 0.0597 KA relative to UGCAUGU
2 | B2 | 0.077 KA relative to UGCAUGU
3 | B3 | 1.27 KA relative to UGCAUGU
4 | B4 | 0.101 KA relative to UGCAUGU
5 | B5 | 0.112 KA relative to UGCAUGU
6 | B6 | 0.154 KA relative to UGCAUGU
7 | B7 | 0.118 KA relative to UGCAUGU
8 | B8 | 0.0878 KA relative to UGCAUGU
9 | B9 | 0.124 KA relative to UGCAUGU
10 | B10 | 0.0801 KA relative to UGCAUGU
11 | B11 | 0.0963 KA relative to UGCAUGU
12 | B12 | 0.0669 KA relative to UGCAUGU
13 | B13 | 0.191 KA relative to UGCAUGU
14 | B14 | 0.0896 KA relative to UGCAUGU
15 | B15 | 0.0531 KA relative to UGCAUGU
16 | B16 | 0.11 KA relative to UGCAUGU

Row | Binder | binding signal
17 | B17 | 0.122 KA relative to UGCAUGU
18 | B18 | 0.145 KA relative to UGCAUGU
19 | B19 | 0.131 KA relative to UGCAUGU
20 | B20 | 0.0968 KA relative to UGCAUGU
21 | B21 | 0.122 KA relative to UGCAUGU
22 | B22 | 0.0723 KA relative to UGCAUGU
23 | B23 | 0.0945 KA relative to UGCAUGU
24 | B24 | 0.0455 KA relative to UGCAUGU
25 | B25 | 0.112 KA relative to UGCAUGU
26 | B26 | 0.091 KA relative to UGCAUGU
27 | B27 | 0.148 KA relative to UGCAUGU
28 | B28 | 0.0663 KA relative to UGCAUGU
29 | B29 | 0.0956 KA relative to UGCAUGU
30 | B30 | 0.0955 KA relative to UGCAUGU
31 | B31 | 0.135 KA relative to UGCAUGU
